{"source": "PubChem BioAssay AID504706", "about": "(National Center for Advancing Translational Sciences (NCATS), 2011)", "note": "Screen size: about 320,000 compounds; about 200 (0.062%) were called active. This list was built around the results that the source calls inconclusive (neither active nor inactive); the mix of calls is not that of the screen. Calls follow the shape of the dose curve; as a rule, active = well fitted activation curve with a large enough effect; inconclusive = small, poorly fitted or top-dose-only effect; inactive = no such curve, though single readings can be large or run the other way. Potencies of inconclusive entries are left out as doubtful fits. Potency is read from the fitted curve at half-maximal effect; tags tell the direction and shape of the fitted curve."}
{"experiment": "qHTS assay for re-activators of p53 using a Luc reporter; also: nearly all actives have a fitted effect of over 45% in size", "conditions": "H1299 p53-A138V BP100-luciferase reporter, luminescence, 24 h; series mostly up to 92.2 µM", "in_short": "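H1299 (p53-null), stable ts p53-A138V + BP100-Luc; 1000 cells/well, Opti-MEM/10% FBS; cpd 4 pt, 1:5; 24 h, 37 deg C, 5% CO2; detection reagent 10 min RT; luminescence.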"}
{"smiles": "Cc1ccc(C(=O)Nc2ccccc2Sc2ccccc2)cc1", "Potency": "inconclusive [activator, full curve, poor fit]"}
{"smiles": "Cn1ccsc1=NC(=O)c1ccccc1OC(F)F", "Potency": "inactive"}
{"smiles": "C/C(Cl)=C/CSc1nn2c(=O)c3ccccc3nc2s1", "Potency": "inconclusive [activator, partial curve, poor fit]"}
{"smiles": "Cc1ccc(/C=C(\\C#N)c2nc3ccccc3[nH]2)s1", "Potency": "inconclusive [activator, partial curve, poor fit]"}
{"smiles": "CC(=O)CN1Cc2ccccc2/C1=N\\C(=O)Nc1ccccc1", "Potency": "inconclusive [activator, partial curve, poor fit]"}
{"smiles": "O=C(CSc1ncccn1)NCc1ccccc1Cl", "Potency": "inconclusive [activator, full curve, poor fit]"}
{"smiles": "COCCNC(=S)N(CCc1c(C)[nH]c2ccc(F)cc12)Cc1cccs1", "Potency": "inactive"}
{"smiles": "Cn1c(N)c(C(=O)CSc2ccccn2)c(=O)n(C)c1=O", "Potency": "inconclusive [activator, partial curve, poor fit]"}
{"smiles": "CC(NC(=O)OC(C)(C)C)C(=O)Oc1ccc2ccc(=O)oc2c1", "note": "(stereo unspecified)", "Potency": "inconclusive [activator, single point]"}
{"smiles": "COc1ccc(C(=O)OCC(=O)NC(=O)CCSc2ccccc2)cc1", "Potency": "inconclusive [activator, full curve, poor fit]"}
{"smiles": "COc1ccc(OC)c(-c2csc(-c3cccs3)n2)c1", "Potency": "inconclusive [activator, partial curve, poor fit]"}
{"smiles": "COc1cccc(OCc2ccc(Cl)cc2)c1C#N", "Potency": "inconclusive [activator, partial curve, poor fit]"}
{"smiles": "CCOCCc1c(O)nc(SCC)[nH]c1=O", "Potency": "inactive"}
{"smiles": "CC(=O)NC1Sc2ccccc2N=C1c1ccccc1", "note": "(stereo unspecified)", "Potency": "inconclusive [activator, partial curve, poor fit]"}
{"smiles": "N#Cc1ccccc1NC(=O)CSc1nccn1CCc1ccccc1", "Potency": "inconclusive [activator, partial curve, poor fit]"}
{"smiles": "Cc1ccc(NC(=O)OCc2cccs2)cc1", "Potency": "inconclusive [activator, partial curve, poor fit]"}
{"smiles": "CCCn1nnnc1SCC(=O)c1ccc2c(c1)OCCO2", "Potency": "inconclusive [activator, partial curve, poor fit]"}
{"smiles": "CN1CCN(C2=C(Cl)C(=O)N(CCc3ccccc3)C2=O)CC1", "Potency": "inconclusive [activator, partial curve, poor fit]"}
{"smiles": "COc1ccc(C(=O)/C=C/NCc2ccc(F)cc2)cc1OC", "Potency": "inactive"}
{"smiles": "O=C(N/C=C/c1ccccc1)Nc1ccc(Cl)cc1", "Potency": "inconclusive [activator, partial curve, poor fit]"}
{"smiles": "Cc1ccc(NC(=O)CSc2ccc(-c3ccc4c(c3)OCO4)nn2)cc1F", "Potency": "inconclusive [activator, full curve, poor fit]"}
{"smiles": "COc1ccc(C(=O)c2ccc(OC)c(N)c2)cc1N", "Potency": "inconclusive [activator, partial curve, poor fit]"}
{"smiles": "Cc1c(N2C(=O)c3ccc4c5c(ccc(c35)C2=O)CC4)c(=O)n(-c2ccccc2)n1C", "Potency": "inactive"}
{"smiles": "COc1ccc(Cn2nnnc2C(c2cc3cccc(C)c3[nH]c2=O)N2CCOCC2)cc1", "note": "(stereo unspecified)", "Potency": "inactive"}
{"smiles": "N#Cc1ccccc1OCc1nnc(-c2ccccc2Br)o1", "Potency": "inconclusive [activator, full curve, poor fit]"}
{"smiles": "CN(C)c1ccc(/C=N/NC(=O)c2ccco2)cc1", "Potency": "inconclusive [activator, full curve, poor fit]"}
{"smiles": "Cc1[nH]c(=S)c(C#N)c(C)c1Cc1ccccc1", "Potency": "inactive"}
{"smiles": "OCC1(CCc2ccccc2)CCN(Cc2cc(Cl)ccc2O)CC1", "Potency": "inactive"}
{"smiles": "Cc1ccn2c(CN3CCOCC3)c(-c3ccccc3)nc2c1", "Potency": "inconclusive [activator, partial curve, poor fit]"}
{"smiles": "COc1cc(CCC(=O)Nc2ccc(C)c(S(=O)(=O)N(C)C)c2)cc(OC)c1OC", "Potency": "inactive"}
{"smiles": "CC(C)Cn1c(/C=C/c2ccco2)nc2ccccc21", "Potency": "inconclusive [activator, partial curve, poor fit]"}
{"smiles": "Fc1ccc(NC(=S)Nc2nccs2)cc1", "Potency": "inconclusive [activator, partial curve, poor fit]"}
{"smiles": "CCc1sc(C(=O)Nc2ncccc2O)cc1C", "Potency": "inconclusive [activator, partial curve, poor fit]"}
{"smiles": "CCOC(=O)CNc1c(-c2ccc(OC)cc2)nc2ccc(Cl)cn12", "Potency": "inconclusive [activator, full curve]"}
{"smiles": "Cc1ccc(NC(=O)NC(=O)N(c2ccccc2)S(C)(=O)=O)cc1", "Potency": "inconclusive [activator, single point]"}
{"smiles": "Cc1noc(N)c1C(=O)Nc1ccc(C(C)(C)C)cc1", "Potency": "inconclusive [activator, partial curve, poor fit]"}
{"smiles": "O=C(Oc1c(Cl)cc(Cl)c2cccnc12)c1ccco1", "Potency": "inconclusive [activator, partial curve, poor fit]"}
{"smiles": "O=C(Nc1nc2ccccc2s1)c1ccc(N2CCCCC2)c([N+](=O)[O-])c1", "Potency": "inconclusive [activator, full curve, poor fit]"}
{"smiles": "Cc1cc(C(F)(F)F)c(C#N)c(SCC(=O)Nc2nc3cc(Br)ccc3s2)n1", "Potency": "inconclusive [activator, partial curve, poor fit]"}
{"smiles": "COCCN(C(=O)COC(=O)c1cc2c(s1)CCCC2)c1c(N)n(Cc2ccccc2)c(=O)[nH]c1=O", "Potency": "inactive"}
{"smiles": "COc1ccccc1C(=O)N/C(=C\\c1cn(C)c2ccccc12)C(=O)NCCCn1ccnc1", "Potency": "inactive"}
{"smiles": "N#Cc1c(Nc2ccc(Cl)cc2)s[nH]c1=O", "Potency": "inconclusive [activator, partial curve]"}
{"smiles": "COC(=O)c1ccccc1NC(=O)C1CCCCC1C(=O)O", "note": "(stereo unspecified)", "Potency": "inactive"}
{"smiles": "O=C(NC1CCN(S(=O)(=O)c2ccccc2)CC1)c1ccccc1", "Potency": "inactive"}
{"smiles": "COC(=O)Cc1nnc(SCC(=O)Nc2ccccc2)c2ccccc12", "Potency": "inconclusive [activator, single point]"}
{"smiles": "CN(C)c1ccc(NC(=O)c2ccc3nc[nH]c3c2)cc1", "Potency": "inconclusive [activator, full curve, poor fit]"}
{"smiles": "O=C(Cc1ccccc1)Nc1nonc1NC(=O)c1ccccc1", "Potency": "inactive"}
{"smiles": "CC(C)CC(=O)NC(=S)NNC(=O)c1ccc([N+](=O)[O-])cc1", "Potency": "inconclusive [activator, single point]"}
{"smiles": "CCOc1ccc(NC(=O)CN2CCN(CC(=O)Nc3ccc(F)cc3)CC2)cc1", "Potency": "inactive"}
{"smiles": "CC1CCc2c(sc(NC(=O)Cn3nc(C(=O)O)c4ccccc4c3=O)c2C#N)C1", "note": "(stereo unspecified)", "Potency": "inactive"}
{"smiles": "CCOc1ccc2[nH]c(C)c(CN3CCN(C)CC3)c(=O)c2c1", "Potency": "inactive"}
{"smiles": "CCc1cc2c(=O)n(CC(=O)NC3CCCCC3)cnc2s1", "Potency": "inconclusive [activator, single point]"}
{"smiles": "Cc1cccc(CNC(=O)c2ccc3nc(Cc4ccccc4F)oc3c2)n1", "Potency": "inconclusive [activator, partial curve, poor fit]"}
{"smiles": "COc1ccccc1OCC(=O)N(Cc1nc(-c2ccccc2)no1)C1CCCCC1", "Potency": "inconclusive [activator, single point]"}
{"smiles": "Cc1c(-c2ccccc2)[nH]n2c(=O)c3c(nc12)CCCC3", "Potency": "inconclusive [activator, partial curve, poor fit]"}
{"smiles": "CN1CCN(c2nc(-c3ccccc3)nc3c2oc2ccccc23)CC1", "Potency": "inactive"}
{"smiles": "Clc1cccc(CN2CCc3c([nH]c4ccccc34)C2)c1", "Potency": "inactive"}
{"smiles": "Cc1ccc(CN2CC(C(=O)N3CCN(c4ccccc4O)CC3)CC2=O)cc1", "note": "(stereo unspecified)", "Potency": "inactive"}
{"smiles": "CCC(C)(C)NC(=O)C1CCCN(S(=O)(=O)c2ccc3c(c2)CC(C)N3C(=O)C2CC2)C1", "note": "(stereo unspecified)", "Potency": "inactive"}
{"smiles": "O=C(CCc1nnc(CCCc2ccccc2)o1)NCCc1ccccc1", "Potency": "inactive"}
{"smiles": "Cc1ccc(-c2nc3ccccc3o2)cc1NC(=S)NC(=O)c1cccs1", "Potency": "inconclusive [activator, partial curve, poor fit]"}
{"smiles": "O=C(Oc1cccc(NC(=O)c2cccs2)c1)c1cccc(S(=O)(=O)N2CCCC2)c1", "Potency": "inconclusive [activator, full curve, poor fit]"}
{"smiles": "Cc1ccc(C)n1-c1sc2c(c1C(=O)O)CCCC2", "Potency": "inconclusive [activator, partial curve, poor fit]"}
{"smiles": "COc1ccc2nc3oc(C(=O)N4CC(C)CC(C)C4)cc3cc2c1", "note": "(stereo unspecified)", "Potency": "inactive"}
{"smiles": "COc1ccccc1C/C(N)=N/OC(=O)c1ccc2c(c1)OCO2", "Potency": "inconclusive [activator, full curve, poor fit]"}
{"smiles": "COC(=O)C1=C(N)Oc2cc(C)n(CC3CCCO3)c(=O)c2C1c1ccccc1OC", "note": "(stereo unspecified)", "Potency": "inactive"}
{"smiles": "COc1cccc(/C=N\\NC(=O)C2C(=O)NCC2c2ccccc2)c1O", "note": "(stereo unspecified)", "Potency": "inactive"}
{"smiles": "Fc1ccc(C(CCNCc2ccccn2)c2ccc(Cl)cc2)cc1", "note": "(stereo unspecified)", "Potency": "inactive"}
{"smiles": "O=C(NC(=S)NCCc1ccccc1)c1ccco1", "Potency": "inconclusive [activator, partial curve, poor fit]"}
{"smiles": "Cc1noc(C(C)C)c1C(=O)Nc1ccc(-c2nnc3n2CCCCC3)cc1", "Potency": "inactive"}
{"smiles": "Brc1ccccc1C1CC(c2ccccc2)=Nc2ccccc2N1", "note": "(stereo unspecified)", "Potency": "inconclusive [activator, partial curve, poor fit]"}
